# The whole screen tested about 350,000 compounds, of which about 31,000 (8.9%) were called active. Inconclusive means that the source gave no clear call. Such entries were picked first, then a sample of the others. The call rests on the fitted dose curve; in most records, active means well fitted inhibition curve with a large enough effect; inconclusive means small, poorly fitted or top-dose-only effect; inactive means no such curve, though single readings can be large or run the other way. Where the call is inconclusive, the potency comes from a doubtful curve fit. The source holds several records for some structures; these can differ, active in one and inactive in another.
# Molecular target: Histone-lysine N-methyltransferase EHMT2 (Homo sapiens) (UniProt Q96KQ7)
# UniProt Q96KQ7, sequence (Q96KQ7 whole entry, looked up): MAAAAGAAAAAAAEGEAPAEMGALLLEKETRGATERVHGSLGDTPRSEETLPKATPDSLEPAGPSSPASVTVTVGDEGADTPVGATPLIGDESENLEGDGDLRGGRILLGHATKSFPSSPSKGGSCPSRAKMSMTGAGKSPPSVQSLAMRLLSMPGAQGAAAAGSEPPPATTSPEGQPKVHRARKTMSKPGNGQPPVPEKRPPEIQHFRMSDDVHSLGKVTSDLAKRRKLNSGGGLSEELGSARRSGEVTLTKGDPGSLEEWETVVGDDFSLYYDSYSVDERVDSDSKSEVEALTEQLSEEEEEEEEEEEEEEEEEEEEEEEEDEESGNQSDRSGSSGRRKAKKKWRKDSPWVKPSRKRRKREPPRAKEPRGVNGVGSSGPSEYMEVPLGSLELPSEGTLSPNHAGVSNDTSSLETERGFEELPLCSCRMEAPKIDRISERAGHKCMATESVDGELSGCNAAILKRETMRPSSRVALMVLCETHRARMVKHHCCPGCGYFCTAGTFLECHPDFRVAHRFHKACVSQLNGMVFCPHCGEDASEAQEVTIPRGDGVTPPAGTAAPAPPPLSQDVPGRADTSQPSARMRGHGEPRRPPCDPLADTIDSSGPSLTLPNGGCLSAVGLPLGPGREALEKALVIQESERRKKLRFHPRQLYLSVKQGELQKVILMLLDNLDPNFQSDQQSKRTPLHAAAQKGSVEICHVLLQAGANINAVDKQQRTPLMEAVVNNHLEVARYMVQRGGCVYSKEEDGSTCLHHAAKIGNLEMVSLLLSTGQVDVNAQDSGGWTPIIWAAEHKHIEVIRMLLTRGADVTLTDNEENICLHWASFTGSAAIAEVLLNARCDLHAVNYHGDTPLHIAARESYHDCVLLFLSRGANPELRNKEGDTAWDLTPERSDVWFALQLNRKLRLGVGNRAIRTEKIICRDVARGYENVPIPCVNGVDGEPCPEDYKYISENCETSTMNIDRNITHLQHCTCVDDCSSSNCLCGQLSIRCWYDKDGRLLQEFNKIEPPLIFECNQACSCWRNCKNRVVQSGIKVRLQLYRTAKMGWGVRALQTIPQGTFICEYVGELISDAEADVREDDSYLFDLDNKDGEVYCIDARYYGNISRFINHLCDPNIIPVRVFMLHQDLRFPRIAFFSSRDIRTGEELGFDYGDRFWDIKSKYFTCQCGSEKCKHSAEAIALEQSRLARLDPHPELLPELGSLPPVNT
# Test: qHTS Assay for Inhibitors of Histone Lysine Methyltransferase G9a; further: nearly all actives have a fitted effect of over 75% in size
# Conditions: G9a H3K9 monomethylation, AlphaScreen, 2 h; activity, negative = inhibition: at 59 µM (top of the series) unless noted
# Method in brief: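 AlphaScreen read-out: biotin-H3K9 peptide (500 nM) methylation by 20 nM enzyme with 20 uM SAM, 2 h at room temperature after 15 min compound preincubation; anti-monomethyl H3K9 antibody plus donor/acceptor beads, 10 min dark.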
# On the % scale 0 is the no-effect control and ±100 the full control effect; potency means the concentration at half of the fitted maximal effect; tags describe the fitted curve by direction and shape.
SMILES,Potency,"activity, negative = inhibition"
COc1ccc(-c2cnc3c(-c4ccc(F)cc4)cnn3c2N)cc1,"inconclusive: 1 µM [inhibitor, single point]",–
CN(C(=O)COC(=O)c1cccc(Cl)c1)C1CCS(=O)(=O)C1 (stereo not given),–,inactive: -7.09% [at 12.7 µM]
COc1cc(C2NC(=O)c3ccccc3O2)cc(OC)c1OC (stereo not given),inactive,–
Nc1ccc2nc(-c3ccccn3)[nH]c2c1,"inconclusive: 3.16 µM [inhibitor, single point]",–
Cc1ccc(C(=O)Nc2cccc(NC(=O)c3ccc(C)c([N+](=O)[O-])c3)n2)cc1[N+](=O)[O-],inactive,–
COc1ccc(N/C=C(\C#N)c2nc3ccccc3n2C)c(OC)c1,inactive,–
CC1CCN(CCOCCOc2ccc(Cl)cc2Br)CC1,active: 10 µM,–
O=C(N/N=C\C=C\c1ccco1)C1COc2ccccc2O1 (stereo not given),"inconclusive: 31.6 µM [inhibitor, partial curve, poor fit]",–
COc1ccc(Cl)cc1NC(=O)c1ccc2c(SCC(=O)O)c3c(nc2c1)CCCC3,active: 50.1 µM,–
COc1cccc2cc(C(=O)OCC(=O)NCc3ccc4c(c3)OCO4)c(=O)oc12,"inconclusive: 50.1 µM [inhibitor, partial curve]",–
N/C(=N\OC(=O)CCCc1ccccc1)c1ccc([N+](=O)[O-])cc1,"inconclusive: 8.91 µM [inhibitor, partial curve, poor fit]",–
CC(C)(CNS(=O)(=O)c1ccc2c(c1)OCCO2)N1CCOCC1,"inconclusive: 44.7 µM [inhibitor, partial curve]",–
NC(=O)CSc1nnc(-c2cccnc2)n1Cc1ccccc1,"inconclusive: 28.2 µM [inhibitor, single point]",–
CCCCC1=CC2=C(c3ccco3)C(=O)C(C)(OC(=O)c3ccc(OC)cc3)C(=O)C2=CN1C1CC1 (stereo not given),"inconclusive: 3.16 µM [inhibitor, single point]",–
CCc1nc(NCc2ccccn2)c2oc3ccccc3c2n1,active: 25.1 µM,–
CC(=O)c1cccc(NC(=O)CSc2ccc(-c3ccco3)nn2)c1,active: 31.6 µM,–
N/C(=N\OC(=O)CCC1CCCCC1)c1ccc([N+](=O)[O-])cc1,"inconclusive: 17.8 µM [inhibitor, partial curve]",–
Cc1ccc(S(=O)(=O)Nc2ccc(N3CCCCC3)cc2)cc1,active: 22.4 µM,–
CCN(c1ccc(NC(=O)COC(=O)c2ccc([N+](=O)[O-])o2)cc1)C(C)C,"inconclusive: 14.1 µM [inhibitor, single point]",–
COc1ccc(C2C=C(c3ccccc3)Nc3nc(NC(=O)/C=C/c4ccc(Cl)cc4)nn32)cc1 (stereo not given),"inconclusive: 31.6 µM [inhibitor, partial curve, poor fit]",–
COc1cccc(NC(=O)Cn2c(=O)n(CCC(=O)NC3CCN(Cc4ccccc4)CC3)c(=O)c3ccccc32)c1,inactive,–
Cc1nnc(Sc2nc3ccccc3o2)c2ccccc12,"inconclusive: 6.31 µM [inhibitor, single point]",–
COc1cccc(C2C3=C(N=c4s/c(=C\c5cccc(O)c5)c(=O)n42)c2ccccc2CC3)c1OC (stereo not given),"inconclusive: 20 µM [inhibitor, single point]",–

SMILES,Potency,"activity, negative = inhibition"
CCOC(=O)NC(=O)/C(C#N)=N\Nc1cccc(Cl)c1,"inconclusive: 56.2 µM [inhibitor, partial curve]",–
Cc1cccc(NC(=O)c2c(C)oc3ncnc(N4CCCCC4)c23)c1C,inactive,–
COCCCN1C(=O)c2ccc(C(=O)OCC(=O)NCc3cccc(OC)c3)cc2C1=O,"inconclusive: 3.98 µM [inhibitor, single point]",–
O=C(CSc1cccc[n+]1[O-])c1cccs1,active: 17.8 µM,–
CCn1cc(Cl)c(C(=O)NNC(=O)CCn2nc(C)c([N+](=O)[O-])c2C)n1,"inconclusive: 25.1 µM [inhibitor, single point]",–
COc1ccccc1-c1nnc(C2CCN(S(=O)(=O)c3ccc(F)c(C)c3)CC2)o1,"inconclusive: 35.5 µM [inhibitor, partial curve, poor fit]",–
CCOC(=O)N1CCN(C(=O)Cn2ncc3c4ccccc4n(Cc4ccc(F)cc4)c3c2=O)CC1,inactive,–
Cc1ccc(NC(=O)c2ccc(C(=O)c3ccccc3)cc2)nc1,inactive,–
Cc1ccc(C(=O)N2CCN(c3ccccc3)CC2)cc1S(=O)(=O)N1CCCC1,"inconclusive: 89.1 µM [inhibitor, single point]",–
COc1cc(NC(=O)C2CCN(S(=O)(=O)c3cccs3)CC2)cc(OC)c1,"inconclusive: 79.4 µM [inhibitor, single point]",–
Cc1ccc(C(=O)NCC(c2cccnc2)N2CCc3ccccc3C2)cc1C (stereo not given),"inconclusive: 3.98 µM [inhibitor, full curve]",–
C=CCNC(=S)N1CCN(Cc2ccc3c(c2)OCO3)CC1,–,inactive: -6.45% [at 0.501 µM]
O=[N+]([O-])c1ccccc1S(=O)(=O)Nc1ccc(-c2ccc3nncn3n2)cc1,"inconclusive: 39.8 µM [inhibitor, partial curve, poor fit]",–
COc1ccc2nc(NC(=O)c3cc(=O)c4cc(C)c(C)cc4o3)sc2c1,inactive,–
COC(=O)c1cc(NC(=O)Cc2ccccc2[N+](=O)[O-])ccc1Cl,"inconclusive: 56.2 µM [inhibitor, partial curve, poor fit]",–
COC(=O)c1ccc(S(=O)(=O)N2CCN(C)CC2)n1C,"inconclusive: 25.1 µM [inhibitor, single point]",–
Cc1ccc(Cl)cc1NS(=O)(=O)c1ccc(N2CCCCS2(=O)=O)cc1,inactive,–
O=C(NCc1n[nH]c(=S)n1-c1ccc(F)cc1)c1ccc(S(=O)(=O)N2CCCCC2)cc1,active: 2.51 µM,–
O=C(O)c1ccc(NS(=O)(=O)c2ccc3c(c2)C(=O)c2cc(S(=O)(=O)Nc4ccc(C(=O)O)cc4)ccc2-3)cc1,active: 50.1 µM,–
Cc1ccc(S(=O)(=O)NNC(=O)Cc2cccn2C)cc1,"inconclusive: 50.1 µM [inhibitor, partial curve, poor fit]",–
Cc1cccc(-c2nn(-c3ccccc3)cc2C(=O)N(C)CC(=O)Nc2ccc(N3CCOCC3)cc2)c1,active: 7.94 µM,–
Cc1cccc(NC(=O)c2sc(-n3nc(C)c(CCC(C)C)c3C)nc2C)c1,"inconclusive: 31.6 µM [inhibitor, single point]",–
NC(=O)c1cc(-c2csc(NCCc3ccccc3)n2)ccc1O,active: 35.5 µM,–

SMILES,Potency,"activity, negative = inhibition"
COc1ccc(OCc2cccc(C(=O)N3CCCC3)c2)cc1,"inconclusive: 25.1 µM [inhibitor, single point]",–
O=C(CSc1n[nH]c(-c2ccccc2)n1)Nc1ccccc1O,active: 50.1 µM,–
CC[C@@H]1C(c2cccc(Cl)c2)=NN(c2ccc(Br)cc2)[C@H]1C(=O)N1CCOC1=O,inactive,–
COC1=C(OC)C(=O)c2ccccc2C1=O,active: 20 µM,inactive: 24.3% [at 12.7 µM]
CCOC(=O)CSc1nc2c(sc3ccccc32)c(=O)n1Cc1ccc(OC)cc1,inactive,–
CCOc1ccc(NC(=O)CN(C)C(=O)c2cccc(S(=O)(=O)N3CCCC3)c2)cc1OCC,inactive,–
COc1ccc(NC2=C(C(C)=O)C(c3ccccc3)C(C(C)=O)C(C)(O)C2)cc1 (stereo not given),"inconclusive: 28.2 µM [inhibitor, partial curve, poor fit]",–
CCC(C)NC(=S)Nc1ccc2nc(N3CCOCC3)cc(C)c2c1 (stereo not given),"inconclusive: 63.1 µM [inhibitor, single point]",–
COc1cc(C2C(C#N)=C(N)Oc3c2c(-c2ccccc2)nn3-c2ccccc2)cc(OC)c1OC (stereo not given),"inconclusive: 31.6 µM [inhibitor, single point]",–
COc1ccc(-n2c3c(cc(-c4nc(-c5ccc(Cl)cc5)cs4)c2=O)C(=O)CC(C)(C)C3)cc1Cl,active: 8.91 µM,–
Cc1ccc(NC(=O)CCNS(=O)(=O)c2cccc3nsnc23)cc1F,inactive,–
Cc1[nH]c2ccccc2c1C(=O)COC(=O)c1nccnc1N,"inconclusive: 7.08 µM [inhibitor, single point]",–
O=C1CSC(=S)N1Cc1cccnc1,"inconclusive: 2.51 µM [inhibitor, partial curve, poor fit]",–
COc1cc2ccccc2cc1C(=O)Nc1ccc2oc(-c3cccc(C)c3)nc2c1,inactive,–
O=S(=O)(c1ccccc1)c1nc(-c2ccccc2F)oc1N1CCOCC1,"inconclusive: 1.12 µM [inhibitor, partial curve, poor fit]",–
COc1ccc(CCNc2nc3cc(OC)c(OC)cc3c3nc(-c4cccnc4)nn23)cc1OC,inactive,–
Cc1nc2sc(C(c3cccs3)N3CCN(c4ccccc4)CC3)c(O)n2n1 (stereo not given),"inconclusive: 28.2 µM [inhibitor, partial curve, poor fit]",–
CN(C)c1ccc(C(=S)N2CCN(c3ccccc3)CC2)cc1,"inconclusive: 39.8 µM [inhibitor, single point]",–
CN(C(=O)Cn1nnc(-c2ccc(S(C)(=O)=O)cc2)n1)c1ccccc1,inactive,–
Cc1ccc(Nc2nc(CSc3n[nH]c(N)n3)cs2)cc1,"inconclusive: 35.5 µM [inhibitor, single point]",–
COC(=O)Nc1ccc2c(c1)N(C(=O)CCN1CCOCC1)c1ccccc1S2,"inconclusive: 2.82 µM [inhibitor, partial curve, poor fit]",–
CCN1C(=O)c2ccccc2Sc2ccc(NC(=O)c3ccc(C#N)cc3)cc21,inactive,–
CC(=O)c1ccc(OCC(=O)Nc2c(C)nn(-c3ccccc3)c2C)cc1,"inconclusive: 1.78 µM [inhibitor, partial curve, poor fit]",–

# Reference: PubChem BioAssay AID504332 (National Center for Advancing Translational Sciences (NCATS), 2011)
